Assay results taken from PubChem BioAssay AID540317 (National Center for Advancing Translational Sciences (NCATS), 2011).
Out of some 390,000 compounds screened, about 2,200 (0.56%) were called active. Inconclusive results, whose numbers are uncertain, are shown with a selection of clear calls. Calls come from the whole dose curve; as a rule, active = well fitted inhibition curve with a large enough effect; inconclusive = small, poorly fitted or top-dose-only effect; inactive = no such curve, though single readings can be large or run the other way. Potencies of inconclusive entries are doubtful fits and often do not repeat.

biological target: Chromobox protein homolog 1 (Homo sapiens) (UniProt P83916); assay: HTS for Inhibitors of HP1-beta Chromodomain Interactions with Methylated Histone Tails; conditions: AlphaScreen HP1-beta / biotin-H3K9me3 peptide binding; series mostly up to 114 µM; note: nearly all actives have a fitted effect of over 70% in size
Sequence of UniProt P83916 (P83916 whole entry, looked up): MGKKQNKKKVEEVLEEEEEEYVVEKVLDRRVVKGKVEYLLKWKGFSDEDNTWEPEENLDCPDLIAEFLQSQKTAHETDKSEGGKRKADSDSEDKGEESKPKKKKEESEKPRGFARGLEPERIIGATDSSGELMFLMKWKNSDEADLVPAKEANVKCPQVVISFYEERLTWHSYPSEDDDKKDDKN
How it was run: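 AlphaScreen: HP1-beta (50 nM) preformed 30 min with biotin-H3(1-18)K9me3 peptide (50 nM) in PBS pH 7.4, 0.01% Tween-20. Compound added for 30 min at RT, then streptavidin donor/nickel chelate acceptor beads (10 ug/mL) for 30 min.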
Potency is the fitted concentration of half-maximal effect; tags give direction and shape of the fitted curve.

| Compound | Potency |
| --- | --- |
| CN1CCCN(Cc2ccccc2C(F)(F)F)CC1 | inconclusive: 22.4 µM [inhibitor, full curve, poor fit] |
| CCOc1cc(C=NN=C2c3ccccc3-c3ccccc32)ccc1O | active: 50.1 µM |
| O=C(c1cc(-n2cnnc2)ccc1Cl)N1CCN(c2nc(-c3ccccc3)cs2)CC1 | inconclusive: 50.1 µM [inhibitor, partial curve, poor fit] |
| Cc1ccn2cc(C(=O)Nc3cccc(C(=O)NC4CC4)c3)nc2c1 | inactive |
| CC(=O)Nc1ccc(Oc2cc(NC(C)=O)cc([N+](=O)[O-])c2)cc1 | inconclusive: 4.47 µM [inhibitor, full curve, poor fit] |
| COCCC(=O)N1CCC(C(=O)Nc2ccc(Oc3ccccc3)nc2)CC1 | inactive |
| C=CSc1sc(Cl)c(N(C)C)c1[N+](=O)[O-] | inconclusive: 56.2 µM [inhibitor, partial curve, poor fit] |
| Cc1c(C(=O)N(Cc2ccc(N(C)C)cc2)CC2CCCO2)oc2ccc(Br)cc12 (stereo not drawn) | inconclusive: 11.2 µM [inhibitor, full curve, poor fit] |
| Nc1nc(NCc2ccc(F)cc2)c2[nH]cnc2n1 | inactive |
| O=[N+]([O-])c1ccccc1S(=O)(=O)N1CCN(C2CCCC2)CC1 | inconclusive: 17.8 µM [inhibitor, full curve] |
| CCS(=O)(=O)N1CCN(C2Cc3ccccc3C2)CC1 | inconclusive: 15.8 µM [inhibitor, full curve] |
| COc1ccc(S(=O)(=O)N2CCC3(CC2)CC(=O)c2ccccc2O3)cc1 | inactive |
| COc1ccc(NC(=O)c2ccc(COc3ccccc3)o2)cc1 | inconclusive: 10 µM [inhibitor, partial curve] |
| COC1CCCCC1Nc1cc(C)cc(C)c1 (stereo not drawn) | active: 17.8 µM |
| COc1ccccc1OC(=O)CCc1nc2ccccc2s1 | inactive |
| CCc1cccc(NC(=O)C(CC(C)C)NS(=O)(=O)c2ccc3c(c2)oc(=O)n3C)c1 (stereo not drawn) | inactive |
| Nc1nc(-c2ccccc2)cn1/N=C/c1ccccc1 | inconclusive: 56.2 µM [inhibitor, partial curve, poor fit] |
| Cc1ccc(C(=O)/C=C/c2ccc(-c3ccccc3[N+](=O)[O-])o2)cc1 | inconclusive: 25.1 µM [inhibitor, single point] |
| COc1cc(OC)c2cc(C(=O)N[C@@H](Cc3ccccc3)C(=O)O)n(C)c2c1 | inactive |
| Cc1cc2ncn(-c3ncccc3[N+](=O)[O-])c2cc1C | inactive |
| CC(=O)Nc1ccc(S(=O)(=O)N2CCC(N3CCCC3)CC2)cc1 | inconclusive: 50.1 µM [inhibitor, partial curve, poor fit] |
| COc1cc([N+](=O)[O-])cc(/C=N/NC(=O)CSc2ccccn2)c1O | inactive |
| CN(C)c1ccc(C(CNS(=O)(=O)c2ccc(F)cc2)N2CCc3ccccc32)cc1 (stereo not drawn) | inconclusive: 20 µM [inhibitor, full curve] |
| COC(=O)c1ccc(CN(C)S(=O)(=O)c2ccc(C)cc2)o1 | inactive |

| Compound | Potency |
| --- | --- |
| O=[N+]([O-])c1cc(S(=O)(=O)N2CCCC2)ccc1N/N=C1/CCCc2ccccc21 | inconclusive: 5.01 µM [inhibitor, full curve] |
| N#Cc1ccc(-n2nccc2-c2cnc3n(c2=O)CCS3)cc1 | inactive |
| Cn1cccc1-c1nc2ccc([N+](=O)[O-])cc2[nH]1 | inconclusive: 22.4 µM [inhibitor, partial curve, poor fit] |
| Clc1ccccc1CN1CCN(CCCc2ccccc2)CC1 | inconclusive: 22.4 µM [inhibitor, full curve, poor fit] |
| COc1ccc(CCN2CC(C(=O)Nc3ccc4c(c3)OCO4)CC2=O)cc1OC (stereo not drawn) | inconclusive: 79.4 µM [inhibitor, single point] |
| CCN(CC)c1ccc(/C=N/NC(=O)Nc2nonc2N)cc1 | inconclusive: 22.4 µM [inhibitor, full curve, poor fit] |
| Cc1ccc(C(C)CCN2CCC(n3nccc3NC(=O)c3ccccc3)CC2)o1 (stereo not drawn) | inactive |
| Oc1ccc(C2C[C@H]3CC[C@@H]2C3)cc1O (stereo partly drawn) | active: 79.4 µM |
| Cc1ccccc1NC(=O)Cc1nc(CCl)cs1 | inconclusive: 22.4 µM [inhibitor, single point] |
| COc1ccc(CNCc2ccc(OC)c3ccccc23)cc1 | inactive |
| COC(=O)c1sccc1S(=O)(=O)N(CC(=O)NCc1ccc(F)cc1)c1ccc(Cl)cc1 | inactive |
| CN(C)c1ccc(Cc2cc3c(O)ccc(O)c3cc(Cc3ccc(N(C)C)cc3)c2=O)cc1 | inconclusive: 1.58 µM [inhibitor, full curve, poor fit] |
| CCOC(=O)Cc1nnc(NC(=O)C(CC)Sc2nc(C)cc(=O)[nH]2)s1 (stereo not drawn) | inactive |
| Cc1ccc(/C=N/n2c(-c3ccc(Cl)cc3)n[nH]c2=S)s1 | inactive |
| COc1ccc(CNCCC(c2ccc(OC(C)C)cc2)c2ccccc2OC)cc1OC (stereo not drawn) | inconclusive: 70.8 µM [inhibitor, partial curve] |
| Cc1ccc(Cl)cc1N1CCN(C(=O)c2cc3c(-c4ccccc4F)nn(C)c3s2)CC1 | inactive |
| O=C(NC1CCCC1)C(c1ccncc1)N(Cc1ccco1)C(=O)c1ccc(-c2ccccc2)[nH]1 (stereo not drawn) | inconclusive: 70.8 µM [inhibitor, partial curve] |
| CCN(CC)S(=O)(=O)c1cc(NC(=O)c2ccc3c(c2)NC(=O)C(C)S3)ccc1C (stereo not drawn) | inconclusive: 4.47 µM [inhibitor, full curve] |
| Cc1ccc2cccc(Oc3ncnc4scc(-c5ccc(Cl)cc5)c34)c2n1 | inactive |
| CCOc1cc(C(=O)OCC(=O)Nc2c(C)cccc2C)ccc1OCC(=O)N1CCOCC1 | inactive |
| O=C(CSc1ncccc1-c1nc2ccccc2[nH]1)NCc1ccco1 | inconclusive: 70.8 µM [inhibitor, partial curve] |
| CCOc1cccc(-c2nnc3sc(-c4cc(OC)c(OC)c(OC)c4)nn23)c1 | inactive |
| O=C(Nc1cccc(F)c1F)C1CCN(c2ncccn2)CC1 | inactive |
| CC(=O)N1CCC2(CC1)C/C(=N\NC(=S)Nc1ccccc1F)c1cc(O)ccc1O2 | inconclusive: 11.2 µM [inhibitor, full curve] |
